This is one part of the list. Repeats are few or missing, and single values can be far off.
Assays:
Test in all cases: cell count relative to DMSO control; melanoma cells; higher = more viable cells
Details in all cases: library dose: standard library concentration; 72 h
[1] = test system: G361
[2] = test system: IPC-298
[3] = test system: IST-MEL1
[4] = test system: LOXIMVI
[5] = test system: MEL-HO
[6] = test system: MeWo
[7] = test system: RPMI7951
[8] = test system: RVH-421
[9] = test system: LB2518-MEL
[10] = test system: MZ2-MEL
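Further: cells treated in 1,536-well plates, then fixed and DAPI-stained, with nuclei counted from automated high-throughput microscope images.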

SMILES	cell count [1]	cell count [2]	cell count [3]	cell count [4]	cell count [5]	cell count [6]	cell count [7]	cell count [8]	cell count [9]	cell count [10]
C=CCNC1=C2C[C@@H](C)C[C@H](OC)[C@H](O)[C@@H](C)/C=C(\C)[C@H](OC(N)=O)[C@@H](OC)/C=C\C=C(/C)C(=O)NC(=CC1=O)C2=O [Tanespimycin] + O=C(Nc1cccc(Cl)c1)Nc1ncc(CCNc2ncnc3ccsc23)s1 [SNS314] (first compound 0.01 µM, partner dose 0.004 µM)	33.9%	75.2%	39.3%	69%	66.6%	51.4%	13.8%	81.6%		
CN1CCN(c2ccc3nc(-c4c(N)c5c(F)cccc5[nH]c4=O)[nH]c3c2)CC1 [Dovitinib] + COc1cc(N2CCC(N3CCN(C)CC3)CC2)ccc1Nc1ncc(Cl)c(Nc2ccccc2S(=O)(=O)C(C)C)n1 [NVP-TAE684] (first compound 0.5 µM, partner dose 0.4 µM)	34.1%	52.7%	64.9%	48.9%	62.7%	34.4%	58.2%	73.5%	48%	35.6%
CS(=O)(=O)CCNCc1ccc(-c2ccc3ncnc(Nc4ccc(OCc5cccc(F)c5)c(Cl)c4)c3c2)o1 [lapatinib] + Nc1cccc2c1CN(C1CCC(=O)NC1=O)C2=O [lenalidomide] (first compound 4 µM, partner dose 5 µM)	71.7%	92.4%	93%	95.7%	85%	109%	76.7%	103%		
C[C@@H](Oc1cc(-c2cnn(C3CCNCC3)c2)cnc1N)c1c(Cl)ccc(F)c1Cl [Crizotinib] + C=CCNC1=C2C[C@@H](C)C[C@H](OC)[C@H](O)[C@@H](C)/C=C(\C)[C@H](OC(N)=O)[C@@H](OC)/C=C\C=C(/C)C(=O)NC(=CC1=O)C2=O [Tanespimycin] (first compound 1 µM, partner dose 0.01 µM)	73.5%	92.1%	87.8%	139%	94.5%	79.6%	45.3%	141%		
C=CCNC1=C2C[C@@H](C)C[C@H](OC)[C@H](O)[C@@H](C)/C=C(\C)[C@H](OC(N)=O)[C@@H](OC)/C=C\C=C(/C)C(=O)NC(=CC1=O)C2=O [Tanespimycin] + COc1ccc(-c2ccc3c(N4CCOCC4)nc(N4C[C@@H](C)O[C@@H](C)C4)nc3n2)cc1CO [KU0063794] (first compound 0.01 µM, partner dose 0.1 µM)	70.6%	80.6%	64.5%	282%	74.2%	87.6%	15.7%	98.2%		
C=CCNC1=C2C[C@@H](C)C[C@H](OC)[C@H](O)[C@@H](C)/C=C(\C)[C@H](OC(N)=O)[C@@H](OC)/C=C\C=C(/C)C(=O)NC(=CC1=O)C2=O [Tanespimycin] + CC(=O)c1c(C)c2cnc(Nc3ccc(N4CCNCC4)cn3)nc2n(C2CCCC2)c1=O [palbociclib] (first compound 0.01 µM, partner dose 0.2 µM)	55.6%	59.6%	44.3%	99%	84.9%	55.6%	23.2%	76.5%	50.5%	66.5%
C=CCNC1=C2C[C@@H](C)C[C@H](OC)[C@H](O)[C@@H](C)/C=C(\C)[C@H](OC(N)=O)[C@@H](OC)/C=C\C=C(/C)C(=O)NC(=CC1=O)C2=O [Tanespimycin] + CC1(C)NC(=O)N(c2ccc([N+](=O)[O-])c(C(F)(F)F)c2)C1=O [nilutamide] (first compound 0.01 µM, partner dose 5 µM)	66.3%	92.6%	53.6%	107%	80.9%	69.6%	23.1%	109%	72.7%	114%
CNC(=O)c1cc(Oc2ccc(NC(=O)Nc3ccc(Cl)c(C(F)(F)F)c3)cc2)ccn1 [sorafenib] + CC(C)CCN1c2nc(Nc3cc(F)c(O)c(F)c3)ncc2N(C)C(=O)C1C [BID1870] (first compound 2 µM, partner dose 1 µM)	66%	82%	88.3%	137%	77.5%	77.3%	83.2%	97.2%		
C[C@@H](Oc1cc(-c2cnn(C3CCNCC3)c2)cnc1N)c1c(Cl)ccc(F)c1Cl [Crizotinib] + Nc1nc(F)nc2c1ncn2[C@@H]1O[C@H](CO)[C@@H](O)[C@@H]1O [fludarabine] (first compound 1 µM, partner dose 1 µM)	88%	69.1%	64.7%	152%	80.1%	80.7%	62.4%	73.7%		
CS(=O)(=O)CCNCc1ccc(-c2ccc3ncnc(Nc4ccc(OCc5cccc(F)c5)c(Cl)c4)c3c2)o1 [lapatinib] + C[C@]1(c2nc3c(C(N)=O)cccc3[nH]2)CCCN1 [Veliparib] (first compound 4 µM, partner dose 7 µM)	70.8%	76.7%	86.8%	68%	69.3%	67.6%	77.8%	69.7%		
CNC(=O)c1cc(Oc2ccc(NC(=O)Nc3ccc(Cl)c(C(F)(F)F)c3)cc2)ccn1 [sorafenib] + COCC[n+]1c2c(n(Cc3cnccn3)c1C)C(=O)c1ccccc1C2=O [YM155] (first compound 2 µM, partner dose 0.002 µM)	89.6%	62.7%	43.6%	77.4%	89.8%	77.8%	50.7%	198%		
CS(=O)(=O)CCNCc1ccc(-c2ccc3ncnc(Nc4ccc(OCc5cccc(F)c5)c(Cl)c4)c3c2)o1 [lapatinib] + Cc1ccc(NC(=O)c2cccc(N(C)C)c2)cc1NC(=O)c1ccc(O)cc1 [ZM336372] (first compound 4 µM, partner dose 10 µM)	45.2%	80%	68.8%	82.1%	62.9%	69.5%	25.8%	69.5%	74.7%	47.3%
